# The full ranking holds about 33,000 sequences; the median of “E-score (-0.5 to 0.5)” is about -0.043, and the highest 2% start at about 0.37. The list shows a part of the results.
# Target: T1, Upc2 (UniProt Q12151)
# T1 sequence: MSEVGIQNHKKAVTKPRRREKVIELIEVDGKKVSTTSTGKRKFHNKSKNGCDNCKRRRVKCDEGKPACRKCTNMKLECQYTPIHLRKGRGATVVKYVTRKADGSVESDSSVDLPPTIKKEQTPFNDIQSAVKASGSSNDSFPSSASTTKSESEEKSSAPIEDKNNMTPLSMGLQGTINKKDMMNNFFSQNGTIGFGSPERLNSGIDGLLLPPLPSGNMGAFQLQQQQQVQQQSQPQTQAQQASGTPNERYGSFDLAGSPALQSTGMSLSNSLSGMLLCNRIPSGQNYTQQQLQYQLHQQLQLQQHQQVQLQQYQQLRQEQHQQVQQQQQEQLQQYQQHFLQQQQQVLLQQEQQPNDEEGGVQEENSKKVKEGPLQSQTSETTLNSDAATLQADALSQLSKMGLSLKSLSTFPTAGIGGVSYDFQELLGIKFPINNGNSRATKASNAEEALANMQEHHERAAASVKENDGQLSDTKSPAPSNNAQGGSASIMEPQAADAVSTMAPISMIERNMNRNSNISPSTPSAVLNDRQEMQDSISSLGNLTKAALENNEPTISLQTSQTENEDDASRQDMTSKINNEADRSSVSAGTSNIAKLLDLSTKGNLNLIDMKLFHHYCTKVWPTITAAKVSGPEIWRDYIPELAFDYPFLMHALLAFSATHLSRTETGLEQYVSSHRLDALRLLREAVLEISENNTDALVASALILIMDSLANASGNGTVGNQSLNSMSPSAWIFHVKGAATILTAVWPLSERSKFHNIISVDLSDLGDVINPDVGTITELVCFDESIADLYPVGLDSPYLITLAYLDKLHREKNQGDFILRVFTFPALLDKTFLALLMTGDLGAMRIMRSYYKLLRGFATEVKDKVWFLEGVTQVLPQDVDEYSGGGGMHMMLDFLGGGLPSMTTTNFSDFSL
# Test: PBM E-score (8-mer binding enrichment) (E-score (-0.5 to 0.5)); higher = stronger / more preferred TF binding; most listed sequences are background and not binding sites
# Conditions: protein concentration: 200 nM; construct: GST-full length
# Outline: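 For each ungapped eight-base word taken together with its reverse complement, the Universal PBM Analysis Suite assigned an E-score. Binding data came from GST-tagged yeast transcription factors, applied at about 100-200 nM, on universal all-10-mer Agilent arrays made double-stranded by primer extension. Fluorescent anti-GST marked bound protein, and scans were normalised with masliner.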
row,Sequence,PBM E-score
1,CAGGTAAG,0.0316
2,AGGCGGTA,-0.0428
3,GTAAGCGA,0.388
4,CCATAAAC,0.24
5,TCCGAGAA,0.248
6,GAATGACA,-0.158
7,AATAGCGT,-0.00637
8,CATACACG,0.191
9,CTGCAGGA,-0.194
10,AGGTCGAA,-0.0868
11,GGGTGGCA,-0.223
12,GGTCCCAC,0.0957
13,AGACGCGC,0.0974
14,CGACCCGA,0.164
15,AAGAATGT,-0.0883
16,CCAGGCGG,-0.151
17,GTGGCCTA,-0.114
18,CCCTTTCA,-0.157
19,ATTAAGGC,-0.131
20,CACTTTAC,0.15
21,CTAATCAA,-0.0908
22,CGTCTAAC,0.0838
23,AGGACGCC,-0.118
24,CAGCGAAA,0.0819
25,GGTTACGA,0.408

row,Sequence,PBM E-score
1,ATGGGGTG,-0.188
2,TTGATAAA,0.0742
3,ATAACGGG,-0.0555
4,ATGAATCA,-0.0273
5,GACAAGTC,-0.0895
6,CCGTATCA,0.334
7,GCTAATAC,0.024
8,CTCTTCCA,-0.0797
9,ACATTATA,0.0353
10,ATTACAAG,-0.139
11,CACGGGGA,-0.233
12,AATCGCAA,0.0942
13,CCTTCGTA,0.441
14,CTTTCGGC,-0.317
15,CACATCTG,-0.242
16,AGTACGGG,0.122
17,TAAGCTAA,0.177
18,ATACCGGC,0.0554
19,CTGTTTAA,0.0306
20,TCTGGTAA,0.0299
21,CGATAGTC,0.121
22,CGTGGCAA,-0.199
23,TCATTTAA,-0.218
24,GTACCGAC,0.141
25,AGAACTCT,-0.0634

row,Sequence,PBM E-score
1,AGGCACCG,0.0555
2,GAGAGGCA,-0.134
3,CCACACCA,-0.0693
4,AAGTAAAC,0.314
5,GTCGCCAC,0.0198
6,ATGGATAC,0.0889
7,AAACAAAG,-0.0514
8,GCGTAACC,0.154
9,ATGGTTAC,0.0571
10,CGCCACCA,-0.212
11,CATATAGC,-0.0979
12,TATAACGA,0.286
13,ATCGGCTA,-0.0554
14,CCCACCTA,-0.159
15,ACGAGTGC,0.377
16,ACTAAACC,0.0385
17,CCGTTGAA,-0.0413
18,CAGAATCC,-0.129
19,GAGTGACC,0.0211
20,GGCAATTA,-0.0875
21,AAGGGCAG,-0.211
22,ACAGTAAA,0.148
23,GGATTGGA,-0.118
24,CGACTTAC,0.128
25,CCCGTCAC,-0.119

row,Sequence,PBM E-score
1,ATCGATGC,-0.0035
2,AGAAGCCA,-0.125
3,ATGAGGAG,-0.325
4,GTCCAGGA,-0.0554
5,GCATTTCC,-0.0365
6,TTCACCAA,-0.00044
7,AGTATCAC,-0.0622
8,GATCTTCC,-0.106
9,AATCACGG,-0.119
10,GACGATAA,0.111
11,CCGACTAG,-0.135
12,AAATTTAT,0.0842
13,CTTAATGA,-0.00126
14,AGCGGCAT,-0.044
15,AGAATCGC,0.106
16,CACTATGC,0.0183
17,GTCGTACA,0.483
18,ATGCGGAA,0.107
19,CCACACGG,-0.0115
20,AACACTAC,0.0431
21,CGGCACAG,-0.0711
22,GAGATTTA,-0.0239
23,GGATTGAC,-0.0986
24,CCGCGAAA,-0.0199
25,AGCCGTGC,-0.15

row,Sequence,PBM E-score
1,ACTTAATA,-0.018
2,CAAAGCTA,0.0114
3,ACGCCAAA,0.0764
4,AAGTATCA,-0.174
5,ATCGTTGG,0.0354
6,AAGATTAC,0.0318
7,ACCTGAGG,-0.237
8,GCGATAGA,0.126
9,GATCGGAC,-0.0578
10,ATATGCAC,-0.00312
11,AGGTGGTC,-0.184
12,GTTACCCA,-0.175
13,ACATGTAG,-0.0513
14,GCCTGGAA,-0.182
15,ATATAGCA,-0.0248
16,ACACGCGG,-0.186
17,GCTACACC,-0.158
18,CAAACCAA,-0.0557
19,CGATAACA,-0.0412
20,CAACACTG,-0.0451
21,CGCTACCC,-0.155
22,AAACTGCC,0.148
23,CGTTCAGA,0.372
24,AGTACAAA,-0.013
25,CGGCGATA,0.136

row,Sequence,PBM E-score
1,CCGCAGAG,-0.311
2,AACACGAG,0.144
3,ACTGATAT,-0.00224
4,AGCTAACC,-0.0678
5,ACACAAAT,0.0348
6,AAGCATGG,-0.262
7,ATGATGCA,0.154
8,ATTGCATA,-0.0863
9,AGGTGGAG,-0.392
10,CGATGCGA,0.16
11,GAAACAAA,0.0262
12,CTAGCTAG,-0.0655
13,AACCAGGT,-0.19
14,ACTTTCGC,0.0685
15,AGGGCCGC,-0.259
16,AACCGCGC,-0.00774
17,GAAGTTCA,-0.0526
18,AATAGCAT,-0.143
19,AGCTCTGA,-0.152
20,AGACGACC,0.132
21,AAAGAAAG,-0.0521
22,AGCGACCT,0.132
23,GCTAGTCC,-0.0309
24,AATTCTCA,-0.201
25,GGCTGATA,-0.0951

row,Sequence,PBM E-score
1,AGGAGCGC,-0.0389
2,ACGAGCGG,0.369
3,GTACGGAC,0.35
4,GAATTACC,0.0138
5,GGCTGCCC,-0.013
6,ATCGTGGC,-0.0693
7,TGCAAAAA,0.0592
8,GGGGATTA,-0.0834
9,ATTTCTCG,0.13
10,CCGGTTGA,-0.148
11,CGAGTATC,0.166
12,GCGCCAGC,-0.0758
13,ACAGGGGG,-0.307
14,AAATGGAT,-0.0355
15,ATCCCGGA,-0.306
16,CAACCAGC,-0.203
17,CACAGTCA,-0.154
18,ACGTACCC,0.203
19,CGTTTCAG,0.283
20,AGCATGAG,-0.253
21,CATTTACC,-0.152
22,CGTCAAAG,0.0448
23,CCTTATAA,0.0883
24,TCAGCGGA,-0.0114
25,GTGTGGGA,-0.122

row,Sequence,PBM E-score
1,CATTCATC,-0.219
2,CGAAAACG,0.219
3,AATATGTG,-0.0278
4,GCCTTATA,0.113
5,AATGATCT,-0.0128
6,CGGATGGA,-0.023
7,ACAACTCG,0.184
8,ATCGAACC,0.0815
9,ACAGTACC,-0.176
10,CCAAAAGC,-0.162
11,CAGGCATC,-0.152
12,AGCATACC,-0.0372
13,AGGATTAT,-0.0741
14,ATAAGACG,0.2
15,ACCGCGCG,0.0243
16,TATCCTGA,-0.0206
17,ATTACCAG,-0.0156
18,ACATCTCA,-0.158
19,TTCTAGAA,0.0714
20,ACAACTGG,-0.171
21,ACGGGTCC,0.144
22,CGTCACAC,0.0317
23,CCCTCCAC,-0.279
24,CAGCAGGG,-0.124
25,GATATCCA,-0.0106

row,Sequence,PBM E-score
1,ATCAAAAA,-0.114
2,CGTGACTC,-0.0854
3,TACAAAAA,0.144
4,AACATTAG,0.0437
5,CGGGCCGC,0.0275
6,AGCAGGCG,-0.0505
7,GACGTTGA,-0.107
8,GCACAGGC,-0.0916
9,CAGACGGC,-0.244
10,CGGTGCAA,0.0724
11,TGCCGCAA,-0.0614
12,CTCACCAG,-0.183
13,ACCAAGTC,-0.00913
14,CCCCGACA,-0.3
15,AATTCCGT,0.0798
16,CAATTCAC,-0.0551
17,TGAGCACA,-0.22
18,ACGTACCT,0.257
19,CCTCACGC,-0.236

# Reference: the supplement of paper PMC3334620
